Experimental data taken from patent US9797889B2, “Activation of bioluminescence by structural complementation” (Promega Corporation, priority 2013, dated 2017).

Molecular target: 5A2+R11E (Oplophorus gracilirostris, UniProt Q9GV45, A31E/A60N/A81I/F95D/G42A/G62A/G78A/G94A/G98A/I117V/K70R/L54V/L99Q/M102K/P142E/Q151K/Q38E/Q45L/V71I/Y165I)
Conditions: 5A2+R11E lysate 1:10; NLpep containing E as the 9th residue

5A2+R11E, sequence (Q9GV45 other isoform, or with tags, fused parts or gaps with the stated changes): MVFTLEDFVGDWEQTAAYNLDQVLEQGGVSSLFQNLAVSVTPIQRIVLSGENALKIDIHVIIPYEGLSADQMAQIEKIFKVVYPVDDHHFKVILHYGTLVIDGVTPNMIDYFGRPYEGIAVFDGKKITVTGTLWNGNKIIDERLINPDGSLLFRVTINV

Sequence | luminescence of NLpep with NLpoly mutation R11E
NVTGWRLFERISN [NLpep72] | lower luminescence
NVTGWRLFEKISN [NLpep75] | lower luminescence
